Test results reported in the supplement of paper PMC5919970.
Counter-ions that a name gives are not always drawn. In all, about 2,000 compounds were measured (“fractional viability relative to vehicle”: median about 0.91, lowest 2% from about 0.045 on). Some of the results follow.

Tested on: TYKNU
Assay: fractional viability relative to vehicle; TYKNU is a high-grade serous ovarian cancer line; higher = less growth inhibition
Settings: 72 h
In short: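 TYKNU control cells or lentiCRISPRv2 knockout derivatives were seeded at 500 cells per well into drug-stamped 384-well plates holding a ~2100-compound library at 2 or 10 μM, in duplicate. Cells were grown at 37 °C in 5% CO2 in RPMI 1640 with 10% FBS, and drug treatment lasted 72 h. Viability was read by Cell Titer Glo luminescence. Duplicate treatment wells were averaged and normalised to duplicate control wells from the same plate position.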

[1] = 2uM, genotype: DNM1L knockout (sgDNM1L #1)
[2] = 2uM, genotype: sgCTRLA1 (non-targeting control)
[3] = 10uM, genotype: DNM1L knockout (sgDNM1L #1)
[4] = 10uM, genotype: sgCTRLA1 (non-targeting control)

| SMILES | fractional viability [1] | fractional viability [2] | fractional viability [3] | fractional viability [4] |
| --- | --- | --- | --- | --- |
| CC(C)C[C@H](NC(=O)[C@@H](NC(=O)c1cccc(-c2ccccc2)n1)[C@@H](C)O)B(O)O | 0.106 | 0.086 | 0.121 | 0.0773 |
| OC[C@H]1O[C@H](O[C@]2(CCl)O[C@H](CCl)[C@@H](O)[C@@H]2O)[C@H](O)[C@@H](O)[C@H]1Cl [Sucralose] | 0.825 | 0.953 | 0.653 | 0.96 |
| CNC(=O)c1cc(Oc2ccc(NC(=O)Nc3cc(C(C)(C)C)nn3-c3ccc4ncccc4c3)c(F)c2)ccn1 [DCC-2036 (Rebastinib)] | 0.757 | 1.05 | 0.201 | 0.196 |
| CN1CCC(=C2c3ccccc3CCc3cccnc32)CC1 [Azatadine dimaleate] | 0.22 | 0.24 | 0.146 | 0.224 |
| Nc1nc2ccc(OC(F)(F)F)cc2s1 [Riluzole] | 0.844 | 1.19 | 0.778 | 0.954 |
| COc1ccc2c(c1)c(CC(=O)O)c(C)n2C(=O)c1ccc(Cl)cc1 [Indomethacin] | 1.02 | 1.18 | 0.913 | 1.18 |
| CC[C@H]1OC(=O)[C@H](C)[C@@H](O[C@H]2C[C@@](C)(OC)[C@@H](O)[C@H](C)O2)[C@H](C)[C@@H](O[C@@H]2O[C@H](C)C[C@H](N(C)C)[C@H]2O)[C@](C)(O)C[C@@H](C)C(=O)[C@H](C)[C@H]2OC(=O)O[C@@]21C [Erythromycin Cyclocarbonate] | 0.806 | 0.903 | 0.927 | 0.877 |
| Cc1c(OCC(F)(F)F)ccnc1C[S@@+]([O-])c1nc2ccccc2[nH]1 [Dexlansoprazole] | 1.12 | 1.16 | 0.858 | 1.07 |
| CC(C(=O)O)c1ccc(-c2ccccc2)c(F)c1 (configuration not stated) [Flurbiprofen] | 1.02 | 1.1 | 0.99 | 1.05 |
| Cc1cc(O)c2c(c1)C(=O)c1cccc(O)c1C2=O [Chrysophanic Acid] | 0.947 | 1.19 | 0.926 | 1.18 |
| NC(=O)c1cn(Cc2c(F)cccc2F)nn1 [Rufinamide] | 0.992 | 1.08 | 1.07 | 1.04 |
| C[C@H]1O[C@@H](O[C@H]2[C@@H](O)C[C@H](O[C@H]3[C@@H](O)C[C@H](O[C@H]4CC[C@@]5(C)[C@H](CC[C@@H]6[C@@H]5C[C@@H](O)[C@]5(C)[C@@H](C7=CC(=O)OC7)CC[C@]65O)C4)O[C@@H]3C)O[C@@H]2C)C[C@H](O)[C@@H]1O [Digoxin] | 0.0546 | 0.0452 | 0.032 | 0.0309 |
| C=CCc1cccc(/C=N/NC(=O)CN2CCN(Cc3ccccc3)CC2)c1O | 0.604 | 0.671 | 0.277 | 0.27 |
| CC(NC(=O)C(Cc1ccccc1)NC(=O)OCc1ccccc1)C(=O)CF (configuration not stated) | 0.85 | 0.869 | 0.793 | 0.606 |
| CC(C(=O)O)c1ccc2c(c1)[nH]c1ccc(Cl)cc12 (configuration not stated) [Carprofen] | 0.996 | 0.999 | 0.913 | 1.02 |
| O=C(Nc1cccc(C(F)(F)F)c1)Nc1cc(S(=O)(=O)NC2CC2)ccc1-c1ccsc1 | 0.923 | 0.992 | 0.712 | 0.909 |
| O=C1c2c(O)cccc2C([C@@H]2O[C@H](CO)[C@@H](O)[C@H](O)[C@H]2O)c2cc(CO)cc(O)c21 (some centres not stated) [Aloin] | 0.838 | 1.09 | 0.828 | 1.06 |
| Cc1ccccc1C(=O)Nc1ccc(C(=O)N2CCCC(O)c3cc(Cl)ccc32)c(C)c1 (configuration not stated) [Tolvaptan] | 0.886 | 1.08 | 0.662 | 1.01 |
| CN(C)C(=O)C(CCN1CCC(O)(c2ccc(Cl)cc2)CC1)(c1ccccc1)c1ccccc1 [Loperamide HCl] | 0.892 | 0.98 | 0.423 | 0.577 |
| COc1ccc(/C=C/C(=O)Nc2ccccc2C(=O)O)cc1OC [Tranilast] | 1.07 | 1.13 | 1.12 | 1.28 |
| CCN(CC)CCNC(=O)c1c(C)[nH]c(/C=C2\C(=O)Nc3ccc(F)cc32)c1C [Sunitinib] | 0.544 | 0.67 | 0.0734 | 0.0439 |
| CCN(CC)CCNC(=O)c1c(C)[nH]c(/C=C2\C(=O)Nc3ccc(F)cc32)c1C [Sunitinib Malate] | 0.853 | 0.819 | 0.169 | 0.122 |
| CCOC(=O)C1=C(COCCN)NC(C)=C(C(=O)OC)C1c1ccccc1Cl (configuration not stated) [Amlodipine] | 0.946 | 1.08 | 0.516 | 0.843 |
| Cc1ncc(CCCN(C)C)cc1Nc1ncc2c(n1)-c1ccc(C(F)(F)F)cc1NC(=S)C2 | 0.211 | 0.231 | 0.259 | 0.251 |
| Oc1ccc(/C=C/c2cc(O)cc(O)c2)cc1 [Resveratrol] | 0.993 | 1.11 | 0.918 | 0.899 |
| Cc1cc(/C=C/C#N)cc(C)c1Nc1ccnc(Nc2ccc(C#N)cc2)n1 [Rilpivirine] | 0.893 | 0.973 | 0.403 | 0.578 |
| Cc1c(N(C)C)c(=O)n(-c2ccccc2)n1C [Amidopyrine] | 0.984 | 1.18 | 0.904 | 1.03 |
| CCOc1cc2ncc(C#N)c(Nc3ccc(F)c(Cl)c3)c2cc1NC(=O)/C=C/CN(C)C [Pelitinib (EKB-569)] | 0.415 | 0.345 | 0.0507 | 0.0481 |
